Data: a collection of fitness landscapes (doi:10.1016/j.celrep.2020.107928)
Over roughly 81,000 sequences, “one-hybrid fitness for binding parS DNA” has its median near -0.17; the highest 2% begin near 0.51. This is one part of the list.

B1: Caulobacter ParB omega fusion; a variant is named by its letters at X, in order, B8GW30 (parent)
chain: MESVVVGEPGMSEGRRGLGRGLSALLGEVDAAPAQAPGEQLGGSREAPIEILQRNPDQPRRTFREEDLEDLSNSIREKGVLQPILVRPSPDTAGEYQIVAGERAWRAAQRAGLKTVPIMVRELDDLAVLEIGIIENVQRADLNVLEEALSYKVLMEKFERTQENIAQTIGKSXSHVANXMRLLXLPDEVQSYLVSGELTAXHARAIAAAADPVALAKQIIEGGLSVRETEALARKAPNLSAGKSKGGRPPRVKDTDTQALESDLSSVLGLDVSIDHRGSTGTLTITYATLEQLDDLCNRLTRGI

Variants of: B1
Assay: one-hybrid fitness for binding parS DNA (scaled: cognate 1, non-cognate 0); higher = stronger binding
Conditions: with parS DNA site
How it was run: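 Fitness is the rescaled log change in variant-to-wild-type read ratio, measured by Illumina sequencing of plasmids before and after bacterial one-hybrid selection. The scale puts cognate at 1 and non-cognate at 0. Selection of Caulobacter ParB libraries, four specificity codons randomised, took place in E. coli USO with a HIS3 reporter, site 19 bp from the promoter, over 48 hours at 37°C on M9-minus-histidine with 0.1 mM IPTG and 5 mM 3-AT.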

Variant | one-hybrid fitness for binding parS DNA
PFTM | ≤ 0.2
ALPW | ≤ 0.2
VTKS | ≤ 0.2
HDDI | ≤ 0.2
AAPV | ≤ 0.2
AYPC | ≤ 0.2
IFGR | ≤ 0.2
RDPA | ≤ 0.2
FSKK | ≤ 0.2
CSLP | ≤ 0.2
ARQA | ≤ 0.2
TWHI | ≤ 0.2
PRQE | ≤ 0.2
CSQV | ≤ 0.2
HMPS | ≤ 0.2
EQPK | ≤ 0.2
MVVC | ≤ 0.2
VAHI | ≤ 0.2
VALS | ≤ 0.2
YLNE | ≤ 0.2
MLWC | ≤ 0.2
SVCF | ≤ 0.2
LRDN | ≤ 0.2
PSTD | ≤ 0.2

Variant | one-hybrid fitness for binding parS DNA
RHWT | 0.692
ASFS | ≤ 0.2
TYHC | ≤ 0.2
KGRS | ≤ 0.2
RLMV | ≤ 0.2
HTWM | ≤ 0.2
FVGT | ≤ 0.2
QFCT | ≤ 0.2
GNSR | ≤ 0.2
GYKM | ≤ 0.2
KSAS | ≤ 0.2
RYWR | ≤ 0.2
TDQW | ≤ 0.2
PSIN | ≤ 0.2
REKM | ≤ 0.2
LNAR | ≤ 0.2
SGRS | ≤ 0.2
PMIR | ≤ 0.2
IGGG | ≤ 0.2
TGKH | ≤ 0.2
QFDY | ≤ 0.2
VVAS | ≤ 0.2
ASAG | ≤ 0.2
ARFI | ≤ 0.2

Variant | one-hybrid fitness for binding parS DNA
MCIG | ≤ 0.2
YDTR | ≤ 0.2
VFTM | ≤ 0.2
NDLF | ≤ 0.2
WVNV | ≤ 0.2
CYYS | ≤ 0.2
ASYW | ≤ 0.2
LAIM | ≤ 0.2
AYMS | ≤ 0.2
QDPI | ≤ 0.2
RSNT | 0.911
QQVF | ≤ 0.2
SSWA | ≤ 0.2
AMKS | ≤ 0.2
YPCR | ≤ 0.2
GNHC | ≤ 0.2
QIKT | ≤ 0.2
SRLP | ≤ 0.2
DLVE | ≤ 0.2
CTAS | ≤ 0.2
DRRY | ≤ 0.2
QGMA | ≤ 0.2
MSMG | ≤ 0.2
QLDC | ≤ 0.2

Variant | one-hybrid fitness for binding parS DNA
GPNL | ≤ 0.2
REPG | ≤ 0.2
TCSA | ≤ 0.2
WAQL | ≤ 0.2
PYAM | ≤ 0.2
DVIC | ≤ 0.2
FRHM | ≤ 0.2
KLMS | ≤ 0.2
FEHS | ≤ 0.2
SFKR | ≤ 0.2
QCCG | ≤ 0.2
PKKY | ≤ 0.2
RIPR | ≤ 0.2
ACWN | ≤ 0.2
WWTS | ≤ 0.2
AHRI | ≤ 0.2
ILPI | ≤ 0.2
QFLI | ≤ 0.2
TPVA | ≤ 0.2
HMKW | ≤ 0.2
TGHR | ≤ 0.2
EQDG | ≤ 0.2
FRKG | ≤ 0.2
EFHA | ≤ 0.2

Variant | one-hybrid fitness for binding parS DNA
QNMG | ≤ 0.2
KDLK | ≤ 0.2
MNGT | ≤ 0.2
SVTY | ≤ 0.2
VIFV | ≤ 0.2
IKKF | ≤ 0.2
DKEY | ≤ 0.2
VHYK | ≤ 0.2
NGHT | ≤ 0.2
NPFR | ≤ 0.2
TFWG | ≤ 0.2
KCWY | ≤ 0.2
ILPD | ≤ 0.2
LVAH | ≤ 0.2
KMEW | ≤ 0.2
VQAA | ≤ 0.2
EARS | ≤ 0.2
ELFT | ≤ 0.2
EVKS | ≤ 0.2
GVTN | ≤ 0.2
SPVQ | ≤ 0.2
EGMI | ≤ 0.2
RCAN | 0.477
YRKE | ≤ 0.2

Variant | one-hybrid fitness for binding parS DNA
LSER | ≤ 0.2
NPRN | ≤ 0.2
FVSG | ≤ 0.2
THVG | ≤ 0.2
YHTG | ≤ 0.2
RHVI | ≤ 0.2
QRQP | ≤ 0.2
QVTR | ≤ 0.2
GCRQ | ≤ 0.2
TNFH | ≤ 0.2
CAWW | ≤ 0.2
GGAR | ≤ 0.2
QKTT | ≤ 0.2
DDKV | ≤ 0.2
KHLV | ≤ 0.2
ILRK | ≤ 0.2
KLSL | ≤ 0.2
DNLD | ≤ 0.2
QHVF | ≤ 0.2
DYAQ | ≤ 0.2
WKLV | ≤ 0.2
VLIL | ≤ 0.2
RPDQ | ≤ 0.2
VQYW | ≤ 0.2

Variant | one-hybrid fitness for binding parS DNA
MCHR | ≤ 0.2
PPPF | ≤ 0.2
GAET | ≤ 0.2
NAAA | ≤ 0.2
YAPC | ≤ 0.2
QQVW | ≤ 0.2
RWSQ | ≤ 0.2
HHFI | ≤ 0.2
PPYK | ≤ 0.2
HHPC | ≤ 0.2
RQYV | ≤ 0.2
PFYC | ≤ 0.2
QHRF | ≤ 0.2
LSGG | ≤ 0.2
HRHF | ≤ 0.2
GELG | ≤ 0.2
KQAR | 0.233
PGSM | ≤ 0.2
CDES | ≤ 0.2
DVDR | ≤ 0.2
VIAT | ≤ 0.2
PAQY | ≤ 0.2
TRHV | ≤ 0.2
VGDR | ≤ 0.2

Variant | one-hybrid fitness for binding parS DNA
AWSG | ≤ 0.2
WTFS | ≤ 0.2
GSPE | ≤ 0.2
DSSK | ≤ 0.2
YEHC | ≤ 0.2
HRSA | ≤ 0.2
TYKA | ≤ 0.2
PHHL | ≤ 0.2
MQMG | ≤ 0.2
LKHR | ≤ 0.2
ALSF | ≤ 0.2
CMLN | ≤ 0.2
SGRK | ≤ 0.2
CTQN | ≤ 0.2
TLGE | ≤ 0.2
KVTK | ≤ 0.2
QNWF | ≤ 0.2
VQAE | ≤ 0.2
MYAS | ≤ 0.2
RMWP | ≤ 0.2
KRRG | ≤ 0.2
VADG | ≤ 0.2
GTCA | ≤ 0.2
QCQA | ≤ 0.2

Variant | one-hybrid fitness for binding parS DNA
TAQM | ≤ 0.2
RFRE | ≤ 0.2
MTWW | ≤ 0.2
QTQP | ≤ 0.2
EDNT | ≤ 0.2
ATND | ≤ 0.2
YNTG | ≤ 0.2
NARY | ≤ 0.2
QWPH | ≤ 0.2
THPG | ≤ 0.2
CSML | ≤ 0.2
SDCW | ≤ 0.2
TMSI | ≤ 0.2
RYTI | ≤ 0.2
SWIC | ≤ 0.2
WMVT | ≤ 0.2
SMMH | ≤ 0.2
PKAN | ≤ 0.2
RATA | 0.586
TDDV | ≤ 0.2
LKTG | ≤ 0.2
TPLV | ≤ 0.2
RPLL | ≤ 0.2
RVAK | ≤ 0.2

Variant | one-hybrid fitness for binding parS DNA
HMQT | ≤ 0.2
DPDT | ≤ 0.2
NQGL | ≤ 0.2
FRCR | ≤ 0.2
LPNG | ≤ 0.2
GHAG | ≤ 0.2
ICRY | ≤ 0.2
IIVR | ≤ 0.2
DNSR | ≤ 0.2
RQKQ | ≤ 0.2
IYPR | ≤ 0.2
HMEF | ≤ 0.2
AYRR | ≤ 0.2
KRQW | ≤ 0.2
IDMG | ≤ 0.2
WPDG | ≤ 0.2
SFYL | ≤ 0.2
MPCS | ≤ 0.2
HSAI | ≤ 0.2
MTAC | ≤ 0.2
WMAV | ≤ 0.2
FDGR | ≤ 0.2
SRDG | ≤ 0.2
GTPC | ≤ 0.2

Variant | one-hybrid fitness for binding parS DNA
HIWG | ≤ 0.2
CKYC | ≤ 0.2
GTTY | ≤ 0.2
LYSR | ≤ 0.2
TEWS | ≤ 0.2
PMGY | ≤ 0.2
SPCF | ≤ 0.2
KVQG | ≤ 0.2
NCSE | ≤ 0.2
YTAY | ≤ 0.2
QQDC | ≤ 0.2
RKSC | 0.812
KCRD | ≤ 0.2
LMAI | ≤ 0.2
PQRN | ≤ 0.2
QRRQ | ≤ 0.2
ELAF | ≤ 0.2
HINN | ≤ 0.2
ITDY | ≤ 0.2
CSPK | ≤ 0.2
QWYY | ≤ 0.2
SLPG | ≤ 0.2
SFET | ≤ 0.2
TNSS | ≤ 0.2

Variant | one-hybrid fitness for binding parS DNA
GMTR | ≤ 0.2
WFQF | ≤ 0.2
QKDC | ≤ 0.2
SANY | ≤ 0.2
KTDV | ≤ 0.2
DLLD | ≤ 0.2
IVTT | ≤ 0.2
GMPG | ≤ 0.2
RMEN | 0.369
QSVG | ≤ 0.2
SPSK | ≤ 0.2
DRDC | ≤ 0.2
RTFE | ≤ 0.2
YNIY | ≤ 0.2
ALTM | ≤ 0.2
GHHS | ≤ 0.2
FKPR | ≤ 0.2
YGDI | ≤ 0.2
MRDV | ≤ 0.2
WLLG | ≤ 0.2
AGMS | ≤ 0.2
KTRV | ≤ 0.2
HAYF | ≤ 0.2
FSEM | 0.417

Variant | one-hybrid fitness for binding parS DNA
SRPM | ≤ 0.2
MGPT | ≤ 0.2
WTVR | ≤ 0.2
HYAS | ≤ 0.2
KRVG | ≤ 0.2
SYQC | ≤ 0.2
VTMQ | ≤ 0.2
YWLS | ≤ 0.2
QQMS | ≤ 0.2
PHFG | ≤ 0.2
HLHN | ≤ 0.2
YKSD | ≤ 0.2
YRAI | ≤ 0.2
ISSL | ≤ 0.2
HIYC | ≤ 0.2
ASME | ≤ 0.2
MWTV | ≤ 0.2
TTAN | ≤ 0.2
